# According to PubChem BioAssay AID686971 (National Center for Advancing Translational Sciences (NCATS), 2013):
# In all, about 360,000 compounds went through this assay and about 7,500 (2.1%) were called active. Inconclusive results, whose numbers are uncertain, are shown with a selection of clear calls. Calls come from the whole dose curve; as a rule, active = well fitted cell-killing curve with a large enough effect; inconclusive = small, poorly fitted or top-dose-only effect, or effect the other way, or another doubt; inactive = no such curve, though single readings can be large or run the other way. Potencies of inconclusive entries are left out as doubtful fits.
# Experiment: qHTS for induction of synthetic lethality in tumor cells producing 2HG: qHTS for the HT-1080-IDH1KD cell line;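 for activity, negative = toxicity: 0% = DMSO wells and -100% = cell-free medium wells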
# Settings: HT-1080 IDH1 knockdown viability, ATP luminescence, 48 h; activity, negative = toxicity: at 46.1 µM (top of the series) unless noted
# Method in brief: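 Viability of IDH1-knockdown HT-1080 fibrosarcoma cells was assessed by CellTiter-Glo after 48 h at 37 °C with titrated compound; concentration-effect curves were classified by fit quality and response size.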
# Potency is the fitted concentration of half-maximal effect; tags give direction and shape of the fitted curve.
SMILES,Potency,"activity, negative = toxicity"
Cn1nnnc1Sc1ncnc2scc(-c3ccccc3)c12,inactive,–
CCOC(=O)N1CCC2(CC1)C(C#N)=C(N)Oc1c2c(C)nn1-c1cccc(Cl)c1,"inconclusive [cytotoxic, single point]",–
CCCCCCCCN1C(=O)[C@H](CC(=O)NCCCC)C[C@@]2(C(=O)OCC)CCCC=C12,"inconclusive [cytotoxic, single point]",–
COc1cc2c(cc1NC(=O)c1ccncc1)oc1ccccc12,"inconclusive [cytotoxic, single point]",–
CC(=O)c1cccc(NC(=O)C2Cc3c(-c4cccc(F)c4)ccnc3O2)c1 (centres undefined),"inconclusive [cytotoxic, single point]",–
COc1ccc(-c2c(C(F)(F)F)[nH]n3c(=O)cc(-c4ccccc4)nc23)cc1,"inconclusive [cytotoxic, partial curve]",–
CCCNCc1cc(OC)c(OCc2ccccc2)cc1Br,inactive,–
COc1ccc(C(=O)Nc2ccc(N3CCCCCC3)cc2)cc1S(=O)(=O)N1CCOCC1,"inconclusive [cytotoxic, partial curve]",–
COC(=O)c1ccc(Cn2c(C)c(C(=O)NCc3ccc(Cl)c(Cl)c3)sc2=O)o1,"inconclusive [cytotoxic, single point]",–
O=C(COC(=O)c1ccc(Cl)nc1)Nc1ccc2c(c1)OCCO2,"inconclusive [rising, single point]",–
COc1cccc(C(=O)NC(Cc2ccccc2)c2ccc3c(c2)OCCCO3)c1 (centres undefined),inactive,–
Cc1cc(/C=N/NC(=O)c2cccs2)c(C)n1-c1ccccc1,"inconclusive [cytotoxic, partial curve]",–
CC(=O)Nc1ccccc1N(C)S(=O)(=O)c1ccc(C)cc1,"inconclusive [cytotoxic, single point]",–
O=C(COc1ccccc1)Nc1cccc(-c2nc3ccccc3[nH]2)c1,–,inconclusive: -31.1% [cytotoxic]
CCn1c2ccccc2c2cc(NC(=O)COC(=O)c3ccccc3O)ccc21,–,inconclusive: -6.47% [cytotoxic]
COC(=O)CSc1nnc(CNC(=O)c2cc(OC)cc(OC)c2)n1-c1ccc(F)cc1,"inconclusive [rising, partial curve, poor fit]",–
CCc1ccc(-c2nc(SCC(=O)NC3CCCC3)n[nH]2)cc1,"inconclusive [cytotoxic, single point]",–
C=CCSc1nnc(CSc2nc3sc4c(c3c(=O)[nH]2)CCCC4)n1-c1ccccc1,"inconclusive [cytotoxic, partial curve]",–
Cc1cc(NC(=O)c2cccc(S(=O)(=O)N3CCCCCC3)c2)n(-c2ccccn2)n1,inactive,–
C[C@H](c1ccccc1)N1C[C@@H](COCc2ccccc2)Oc2cc(N3CC[C@@H](O)C3)ccc2S1(=O)=O,"inconclusive [cytotoxic, single point]",–
Cc1ccc(Sc2ncccc2COC(=O)Nc2c(C)cccc2C)cc1,"inconclusive [cytotoxic, partial curve, poor fit]",–
O=C(c1cc(-c2ccccc2)on1)N(Cc1cccnc1)C(c1ccccn1)c1nc2ccccc2[nH]1 (centres undefined),"inconclusive [cytotoxic, single point]",–
Cc1ccc(Nc2nc(-c3ccc(O)cc3O)cs2)nc1,active: 1.84 µM,–

SMILES,Potency,"activity, negative = toxicity"
CC(NC(=O)CN1C(=O)NC2(CCc3ccccc32)C1=O)c1ccc2c(c1)OCCO2 (centres undefined),inactive,–
Cc1ccccc1NS(=O)(=O)c1ccc(N2CCCC2=O)cc1,active: 9.2 µM,–
C=CCc1cc(C)ccc1OCC(O)CN1CCN(c2ccccc2)CC1 (centres undefined),"inconclusive [cytotoxic, single point]",–
CCCCC(=O)N(C)c1c(CC)nc2c(OCc3cc(Cl)cc(Cl)c3)cccn12,"inconclusive [cytotoxic, single point]",–
CCCC(NC(=S)NCC1CCCO1)C12CC3CC(CC(C3)C1)C2 (centres undefined),"inconclusive [cytotoxic, single point]",–
CC(C)(C)NCC(O)COc1ccccc1C1CCCC1 (centres undefined),"inconclusive [cytotoxic, single point]",–
CCOc1ccc(C(C)C)cc1S(=O)(=O)n1nc(C)cc1C,inactive,–
COc1ccc(CNC(=O)CN(Cc2ccc(C)cc2)C(=O)c2csnn2)cc1,inactive,–
CN(CC(=O)Nc1cccc(F)c1)C(=O)/C=C/c1ccc(S(=O)(=O)N2CCCCCC2)cc1,"inconclusive [cytotoxic, partial curve]",–
CCc1ccc(NC(=O)N2CCN(C(=O)C3CCCO3)CC2)cc1 (centres undefined),inactive,–
COc1cccc(C(=O)NCc2ccc(N3CCN(C(=O)OC(C)(C)C)CC3)cc2)c1,inactive,–
Cc1ccc(N2C(=O)N(CC(=O)N3c4ccccc4CC3C)C(=O)C2C)cc1 (centres undefined),inactive,–
CCCCc1nc2ccccc2c(N)c1CCC (tested in a mixture with another compound),"inconclusive [cytotoxic, partial curve]",–
Cn1c(SCC(=O)N2CCCCC2)nnc1-c1ccc(S(=O)(=O)N2CCOCC2)cc1,"inconclusive [cytotoxic, single point]",–
CCCCSCCCNC(=O)C1CCC(CNS(=O)(=O)c2ccc(NC(C)=O)cc2)CC1 (centres undefined),"inconclusive [cytotoxic, partial curve]",–
CCC1CN(C(=O)N2CCC(C(=O)NCc3ccccc3OC)CC2)c2cc(C)ccc2O1 (centres undefined),inactive,–
CCN(CC)CCn1c(=N)n(CC(=O)c2ccc(Br)s2)c2ccccc21,active: 23.1 µM,–
COc1ccc(-n2ncc(C(C)NS(=O)(=O)c3cccs3)c2C)cc1 (centres undefined),inactive,–
N#Cc1c(N2CCN(C(=O)c3ccco3)CC2)nc(-c2ccccc2)c2c1CCCC2,"inconclusive [cytotoxic, single point]",–
COc1ccc(C(=O)NCc2nnc(SCC(=O)NCc3ccco3)o2)cc1,inactive,–
CC(C)(C)c1nn(-c2ccccc2)c2[nH]c(=O)c(CNCc3ccco3)cc12,"inconclusive [cytotoxic, single point]",–
COc1ccc(/C=N/Nc2cc(C)nc(-n3nc(C)cc3C)n2)c(OC)c1,active: 9.2 µM,–
O=C(Nc1cccc(Cl)c1)OCCOC(=O)Nc1cccc(Cl)c1,active: 23.1 µM,–

SMILES,Potency,"activity, negative = toxicity"
CCCC(=O)Nc1nc(C(=O)OCC)cs1,"inconclusive [rising, single point]",–
FC(F)(F)c1cccc(-c2cc3nc(NCCCn4ccnc4)ccn3n2)c1,"inconclusive [cytotoxic, single point]",–
CCOc1ccc(/C=N/NC(=O)Cc2ccccc2)cc1CN1CC2CC(C1)c1cccc(=O)n1C2 (centres undefined),"inconclusive [cytotoxic, single point]",–
Cc1cc(NC(=O)C2CCCCC2)ccc1NC(=O)c1ccccc1Cl,"inconclusive [cytotoxic, single point]",–
COc1ccc(C2CN=NC23CCCc2ccccc2C3=O)cc1 (centres undefined),"inconclusive [cytotoxic, single point]",–
O=C(CCC(=O)N1CCCC1)Nc1ccc([N+](=O)[O-])cc1,"inconclusive [cytotoxic, partial curve, poor fit]",–
Oc1ccc(/C=N/N(Cc2ccccc2)c2ccccc2)cc1,active: 16.4 µM,–
CCCCNS(=O)(=O)c1ccc2nc(-c3cccnc3)cc(C(=O)NC(C)C)c2c1,"inconclusive [cytotoxic, single point]",–
COc1ccc(/C(C)=N/Nc2nc3ccccc3nc2C)cc1OC,"inconclusive [cytotoxic, single point]",–
CC[N+]1=C(C)C(C)(C)c2cc(C)ccc21,active: 5.17 µM,–
COc1ccc(CNC(=O)c2ccc(-c3cccnc3)c3ccoc23)cc1OC,"inconclusive [cytotoxic, single point]",–
Cn1nc(C(=O)N2CCN(c3ccccc3F)CC2)c2c1-c1ccccc1S(=O)(=O)C2,inactive,–
CCN(CC)S(=O)(=O)c1cc(NC(=O)Cc2n[nH]c(=O)c3ccccc23)ccc1C,–,inconclusive: 0% [cytotoxic]
CCOC(=O)C(=Cc1ccccc1OC)C(=O)OCC,"inconclusive [cytotoxic, partial curve, poor fit]",–
COc1cc(/C=N/NC(=O)CCn2c3ccccc3c3ccccc32)ccc1O,–,inconclusive: -13%
Oc1ccccc1C1=Nc2ccccc2N=C(c2cccs2)C1,"inconclusive [cytotoxic, single point]",–
COc1ccc(NC(=O)COC(=O)C(NC(=O)c2ccc(C)cc2)C(C)C)cn1 (centres undefined),inactive,–
CC(C)Oc1cccc(NC(=O)C2(C)CCCN2C(=O)C(C)C)c1 (centres undefined),"inconclusive [rising, single point]",–
O=C(NCc1cccnc1)c1csc2c1CCCC2,"inconclusive [rising, single point]",–
COc1ccc(C(C(=O)NC(C)(C)C)N(C(=O)CNC(=O)c2cccs2)c2ccc(C(C)C)cc2)cc1OC (centres undefined),"inconclusive [cytotoxic, single point]",–
Cc1ccc(OCCSc2nc3ccccc3n2CC(=O)O)cc1C,inactive,–
CCOC(=O)C1=C(C)N(C[C@@H]2CC[C@@H](Cc3ccc(-c4ccccc4)cc3)O2)C(=O)NC1c1ccc(-c2ccccc2)cc1 (some centres undefined),inactive,–
CC(C)(C)c1cc(C(=O)NCc2cc(F)cc3c2OCOC3)n(Cc2ccccc2)n1,"inconclusive [cytotoxic, single point]",–
